Results as given in patent US20250034274A1 (Daiichi Sankyo, published 2025).
Residue numbers refer to the chain shown, from its start.

Tests used:
[1] = target: T1, biotinylated human CD98 antigen (human, UniProt P08195 105-529, biotinylated with EZ-Link NHS-PEG4-Biotin (for ELISA)); assay: ELISA, immobilised biotinylated human CD98, anti-human IgG-HRP, chemiluminescence
T1 construct: extracellular domain
T1 sequence (looked up): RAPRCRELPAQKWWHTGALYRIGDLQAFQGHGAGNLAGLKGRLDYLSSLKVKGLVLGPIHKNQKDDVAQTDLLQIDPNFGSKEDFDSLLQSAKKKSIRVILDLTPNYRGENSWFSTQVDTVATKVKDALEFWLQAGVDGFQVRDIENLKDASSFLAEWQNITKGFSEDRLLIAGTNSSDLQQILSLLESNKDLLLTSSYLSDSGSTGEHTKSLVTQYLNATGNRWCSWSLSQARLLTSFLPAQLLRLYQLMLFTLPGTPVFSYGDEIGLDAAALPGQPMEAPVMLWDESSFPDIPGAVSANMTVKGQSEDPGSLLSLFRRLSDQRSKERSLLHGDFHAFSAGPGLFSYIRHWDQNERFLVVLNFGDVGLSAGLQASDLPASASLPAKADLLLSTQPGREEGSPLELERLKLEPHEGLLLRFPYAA

[2] = target: T1, biotinylated human CD98 antigen; assay: ELISA on human CD98, antibody with or without MMP1 cleavage
[3] = target: T1, biotinylated human CD98 antigen; assay: ELISA, immobilised biotinylated human CD98, anti-human IgG-HRP, chemiluminescence; without MMP1
[4] = target: T1, biotinylated human CD98 antigen; assay: ELISA, immobilised biotinylated human CD98, anti-human IgG-HRP, chemiluminescence; antibody pre-incubated with MMP1
[5] = target: T1, biotinylated human CD98 antigen; assay: as above; remark: listed apart in the source
[6] = target: T1, biotinylated human CD98 antigen; assay: ELISA, immobilised biotinylated human CD98, anti-human IgG-HRP, chemiluminescence; without MMP1; remark: listed apart in the source
[7] = target: T1, biotinylated human CD98 antigen; assay: ELISA, immobilised biotinylated human CD98, anti-human IgG-HRP, chemiluminescence; without protease
[8] = target: T1, biotinylated human CD98 antigen; assay: ELISA, immobilised biotinylated human CD98, anti-human IgG-HRP, chemiluminescence; antibody pre-incubated with uPA
[9] = target: T1, biotinylated human CD98 antigen; assay: ELISA, immobilised biotinylated human CD98, anti-human IgG-HRP, chemiluminescence; antibody pre-incubated with CAPN1
[10] = target: T1, biotinylated human CD98 antigen; assay: ELISA, immobilised biotinylated human CD98, anti-human IgG-HRP, chemiluminescence; without protease; remark: listed apart in the source
[11] = target: T1, biotinylated human CD98 antigen; assay: ELISA, immobilised biotinylated human CD98, anti-human IgG-HRP, chemiluminescence; antibody pre-incubated with uPA; remark: listed apart in the source
[12] = target: T1, biotinylated human CD98 antigen; assay: ELISA, immobilised biotinylated human CD98, anti-human IgG-HRP, chemiluminescence; antibody pre-incubated with CAPN1; remark: listed apart in the source
[13] = target: T1, biotinylated human CD98 antigen; assay: ELISA, immobilised biotinylated human CD98, anti-human IgG-HRP, chemiluminescence; without protease; remark: listed apart in the source
[14] = target: T1, biotinylated human CD98 antigen; assay: ELISA, immobilised biotinylated human CD98, anti-human IgG-HRP, chemiluminescence; antibody pre-incubated with uPA; remark: listed apart in the source
[15] = target: T1, biotinylated human CD98 antigen; assay: ELISA, immobilised biotinylated human CD98, anti-human IgG-HRP, chemiluminescence; antibody pre-incubated with CAPN1; remark: listed apart in the source
[16] = target: T1, biotinylated human CD98 antigen; assay: ELISA, immobilised biotinylated human CD98, anti-human IgG-HRP, chemiluminescence; without protease; remark: listed apart in the source
[17] = target: T1, biotinylated human CD98 antigen; assay: ELISA, immobilised biotinylated human CD98, anti-human IgG-HRP, chemiluminescence; antibody pre-incubated with MMP9
[18] = target: T1, biotinylated human CD98 antigen; assay: ELISA, immobilised biotinylated human CD98, anti-human IgG-HRP, chemiluminescence; antibody pre-incubated with CAPN1; remark: listed apart in the source

B1: anti-CD98 antibody hM23H1L1 (antibody)
heavy: QVQLVQSGAEVKKPGASVKVSCKASGYAFSNYLIEWVRQAPGQGLEWMGVINPGSGVTNYNEKFKGRVTITADTSTSTAYMELSSLRSEDTAVYYCARAEAWFAYWGQGTLVTVSSASTKGPSVFPLAPSSKSTSGGTAALGCLVKDYFPEPVTVSWNSGALTSGVHTFPAVLQSSGLYSLSSVVTVPSSSLGTQTYICNVNHKPSNTKVDKRV[human IgG1 Fc not shown]
light: DIVMTQSPDSLAVSLGERATINCKSSQSLLYSSNQKNYLAWYQQKPGQPPKLLIYWASTRESGVPDRFSGSGSGTDFTLTISSLQAEDVAVYYCQRYYGYPWTFGQGTKVEIKRTVAAPSVFIFPPSDEQLKSGTASVVCLLNNFYPREAKVQWKVDNALQSGNSQESVTEQDSKDSTYSLSSTLTLSKADYEKHKVYACEVTHQGLSSPVTKSFNRGEC
notes: Known antibody of WO 2015/146132
In the case of B1, the “EC50 (read off the curve)” value [1] is reported as roughly 0.8 nM.

B2: anti-CD98 masked antibody MhM1008 (antibody)
heavy: B1 heavy
light: GENMWNDLDLVPLGILGSGGGGSVLVPMAMMASGGSDIVMTQSPDSLAVSLGERATINCKSSQSLLYSSNQKNYLAWYQQKPGQPPKLLIYWASTRESGVPDRFSGSGSGTDFTLTISSLQAEDVAVYYCQRYYGYPWTFGQGTKVEIKRTVAAPSVFIFPPSDEQLKSGTASVVCLLNNFYPREAKVQWKVDNALQSGNSQESVTEQDSKDSTYSLSSTLTLSKADYEKHKVYACEVTHQGLSSPVTKSFNRGEC
notes: Mimotope from Linear 15mer lib and MMP cleavable linker on the light chain
In the case of B2, the “EC50 ratio of binding (under the condition without the addition of MMP1/under the condition with the addition of MMP1)” value [2] is reported as 132, the “EC50 (read off the curve)” value [3] is reported as roughly 30 nM and the “EC50 (read off the curve)” value [4] is reported as roughly 0.2 nM.

B3: MhM1013-M1 (antibody)
heavy: B1 heavy with Y27A
light: GNFYHQYPWPLEILGSGSGGGGSVLVPMAMMASGGSDIVMTQSPDSLAVSLGERATINCKSSQSLLYSSNQKNYLAWYQQKPGQPPKLLIYWASTRESGVPDRFSGSGSGTDFTLTISSLQAEDVAVYYCQRYYGYPWTFGQGTKVEIKRTVAAPSVFIFPPSDEQLKSGTASVVCLLNNFYPREAKVQWKVDNALQSGNSQESVTEQDSKDSTYSLSSTLTLSKADYEKHKVYACEVTHQGLSSPVTKSFNRGEC
notes: Heavy chain of hM23-M1 and light chain of MhM1013
For B3, the “EC50 ratio of binding intensity (under the condition without the addition of MMP1/under the condition with the addition of MMP1)” value [2] was 552 and the “EC50 (read off the curve)” value [5] was roughly 0.5 nM.

B4: anti-CD98 masked antibody MhM1013 (antibody)
heavy: B1 heavy
light: B3 light
notes: Mimotope from ZPZP lib and MMP cleavable linker on the light chain
With B4 the “EC50 ratio of binding (under the condition without the addition of MMP1/under the condition with the addition of MMP1)” value [2] was 326, the “EC50 ratio of binding intensity (under the condition without the addition of MMP1/under the condition with the addition of MMP1)” value [2] was 239 and the “EC50 (read off the curve)” value [6] was roughly 100 nM. The “EC50 (read off the curve)” value [5] was roughly 0.5 nM.

B5: MhM1019-M1 (antibody)
heavy: B1 heavy with Y27A
light: GNFYHQYPWPLEILGSGGGGSGRSANAGGSGGGGSGGSDIVMTQSPDSLAVSLGERATINCKSSQSLLYSSNQKNYLAWYQQKPGQPPKLLIYWASTRESGVPDRFSGSGSGTDFTLTISSLQAEDVAVYYCQRYYGYPWTFGQGTKVEIKRTVAAPSVFIFPPSDEQLKSGTASVVCLLNNFYPREAKVQWKVDNALQSGNSQESVTEQDSKDSTYSLSSTLTLSKADYEKHKVYACEVTHQGLSSPVTKSFNRGEC
notes: Anti-CD98 masked antibody; uPA substrate only
For B5, the “EC50 (read off the curve)” value [7] was 70 to 80 nM, the “EC50 (read off the curve)” value [8] was roughly 0.6 nM and the “EC50 (read off the curve)” value [9] was 70 to 80 nM.

B6: MhM1020-M1 (antibody)
heavy: B1 heavy with Y27A
light: GNFYHQYPWPLEILGSGGGGSGGGGSGGGPLFAAPGGSDIVMTQSPDSLAVSLGERATINCKSSQSLLYSSNQKNYLAWYQQKPGQPPKLLIYWASTRESGVPDRFSGSGSGTDFTLTISSLQAEDVAVYYCQRYYGYPWTFGQGTKVEIKRTVAAPSVFIFPPSDEQLKSGTASVVCLLNNFYPREAKVQWKVDNALQSGNSQESVTEQDSKDSTYSLSSTLTLSKADYEKHKVYACEVTHQGLSSPVTKSFNRGEC
notes: Anti-CD98 masked antibody; CAPN substrate
In the case of B6, the “EC50 (read off the curve)” value [10] is reported as roughly 100 nM, the “EC50 (read off the curve)” value [11] is reported as roughly 100 nM and the “EC50 (read off the curve)” value [12] is reported as roughly 3 nM.

B7: MhM1021-M1 (antibody)
heavy: B1 heavy with Y27A
light: B6 light with G23R, G24S, G25A, S26N, G27A
notes: Anti-CD98 masked antibody; uPA substrate and CAPN substrate
For B7, the “EC50 (read off the curve)” value [13] was roughly 90 nM, the “EC50 (read off the curve)” value [14] was roughly 1 nM and the “EC50 (read off the curve)” value [15] was roughly 3 nM.

B8: MhM1022-M1 (antibody)
heavy: B1 heavy with Y27A
light: B5 light with G22P, R23L, S24G, A25L, N26A, A27G
notes: Anti-CD98 masked antibody; MMP9 substrate PLGLAG only
In the case of B8, the “EC50 (read off the curve)” value [16] is reported as roughly 100 nM, the “EC50 (read off the curve)” value [17] is reported as roughly 0.6 nM and the “EC50 (read off the curve)” value [18] is reported as roughly 30 nM.
